From PMC4336329 (PLoS ONE, 2015)
The whole screen tested about 310,000 compounds, of which about 2,200 (0.71%) showed an effect of 50% or more. The effect is printed as a negative number. The list shows a part of the results.

biological target: human ether-à-go-go-related gene (hERG) potassium channel (human, UniProt Q12809); test: primary screen, population patch clamp on CHO cells stably expressing hERG
Method: Briefly, Chinese hamster ovary (CHO) cells stably expressing the hERG channel were dislodged from tissue culture flasks and dispensed into PPC plates. […] During the recording, background leak currents were estimated by a 100 ms step to -80 mV from an initial holding potential of -70 mV and subtracted from the subsequent current measurement. The campaign was conducted in two phases using slight differences in recording protocol. In the first phase, the initial voltage pulse used a 100 ms step to -30 mV from a holding potential of -70 mV, a 2 s conditioning step to +25 mV, and a 2 s test step to -30 mV. During the second phase of the screen, the potential during the conditioning step was raised to +45 mV. In both phases of the campaign, a secondary voltage pulse was applied using the same parameters as the second phase initial pulse. The initial and secondary pulses were applied in the absence of compound, and upon application of 1 μM and 10 μM test concentrations. Small molecule effects on hERG current density were quantified by […].

Sequence of human ether-à-go-go-related gene (hERG) potassium channel (Q12809 whole entry, looked up): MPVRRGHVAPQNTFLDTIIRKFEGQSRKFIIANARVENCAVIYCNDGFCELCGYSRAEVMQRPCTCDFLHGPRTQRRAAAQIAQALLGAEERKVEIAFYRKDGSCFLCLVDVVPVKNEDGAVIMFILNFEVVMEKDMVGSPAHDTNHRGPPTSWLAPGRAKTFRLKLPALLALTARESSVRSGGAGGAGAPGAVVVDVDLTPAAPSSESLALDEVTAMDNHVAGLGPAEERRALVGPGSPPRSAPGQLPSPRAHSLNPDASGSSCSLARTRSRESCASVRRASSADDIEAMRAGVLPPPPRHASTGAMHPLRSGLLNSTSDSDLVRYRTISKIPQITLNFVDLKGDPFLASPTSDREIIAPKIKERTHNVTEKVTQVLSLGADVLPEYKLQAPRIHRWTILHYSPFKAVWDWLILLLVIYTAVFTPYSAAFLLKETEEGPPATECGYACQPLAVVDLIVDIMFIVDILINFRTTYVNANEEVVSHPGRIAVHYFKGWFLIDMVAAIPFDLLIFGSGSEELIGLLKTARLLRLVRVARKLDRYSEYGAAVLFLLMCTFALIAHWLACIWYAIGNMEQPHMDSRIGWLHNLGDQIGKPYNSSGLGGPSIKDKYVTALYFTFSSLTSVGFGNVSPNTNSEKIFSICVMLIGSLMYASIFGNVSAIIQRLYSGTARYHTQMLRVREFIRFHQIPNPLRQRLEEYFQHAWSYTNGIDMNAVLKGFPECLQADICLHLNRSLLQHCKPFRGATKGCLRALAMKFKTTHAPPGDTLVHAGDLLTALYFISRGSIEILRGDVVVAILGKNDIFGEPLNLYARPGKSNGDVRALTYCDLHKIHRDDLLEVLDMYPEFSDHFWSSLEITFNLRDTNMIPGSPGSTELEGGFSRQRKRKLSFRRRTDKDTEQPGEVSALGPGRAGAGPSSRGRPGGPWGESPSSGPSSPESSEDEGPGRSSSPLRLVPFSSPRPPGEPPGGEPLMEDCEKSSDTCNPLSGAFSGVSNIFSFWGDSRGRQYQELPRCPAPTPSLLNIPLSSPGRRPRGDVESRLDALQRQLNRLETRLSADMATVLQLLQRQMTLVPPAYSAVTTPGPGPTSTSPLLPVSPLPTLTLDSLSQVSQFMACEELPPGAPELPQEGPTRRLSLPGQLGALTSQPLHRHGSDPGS

Row | SMILES | hERG current change (%, negative = inhibition) at 1uM
1 | COC(=O)C1C(=O)C2=C(CC1C)NC(C)=C(C(=O)OC(C)C)C2c1ccc(OC)c(O)c1 (centres unmarked) | 11%
2 | COC(=O)c1cccc(NC(=O)Nc2ccc(Cl)cc2)c1 | 11.9%
3 | CCOC(=O)N1CCC(=NNC(=O)Cn2ccc(C(F)(F)F)n2)CC1 | 2.06%
4 | N=c1c2c3c(sc2nc2n1CCC2)CCCC3 | -7.57%
5 | CCO[C@@H]1OC(C(=O)N2CCN(C)CC2)=C[C@H](c2ccc(C(F)(F)F)cc2)[C@H]1CCCO | 3.21%
6 | O=C(NCC1CCCN(Cc2ccc3nonc3c2)C1)c1cccc(C(F)(F)F)c1 (centres unmarked) | -22.3%
7 | O=P(Nc1ccccc1)(Nc1ccccc1)Oc1cccc(Cl)c1 | -11.3%
8 | COC(=O)c1ccc(Nc2ncnc3c2cnn3-c2cccc(C)c2)cc1 | 5.6%
9 | NS(=O)(=O)c1ccc(NC(=O)NC2CC(=O)N(c3ccc4c(c3)OCCO4)C2)cc1 (centres unmarked) | 8.01%
10 | CCOC(CC(=O)NNC(=O)c1c(-c2c(Cl)cccc2Cl)noc1C)OCC | 9.76%
11 | COc1ccc(S(=O)(=O)N2c3ccc(F)cc3CCC2C)cc1 (centres unmarked) | 3.58%
12 | COc1ccccc1N(CC(=O)Nc1cc(C)on1)S(=O)(=O)c1ccc(Cl)cc1 | 6.52%
13 | COc1ccccc1CNC(=O)CNC(=O)c1sc2ccccc2c1Cl | 16.2%
14 | O=C(NCCCn1ccnc1)C(Cc1ccc([N+](=O)[O-])cc1)N1C(=O)c2ccccc2C1=O (centres unmarked) | -39.2%
15 | CN1CCN(S(=O)(=O)c2cccc(C(=O)NCc3ccccc3Cl)c2)CC1 | 3.02%
16 | CCC(C)Nc1nnnc2c1sc1nc3c(cc12)COC(C)(C)C3 (centres unmarked) | -1.38%
17 | COCCCNc1ccnc2c(Cl)cccc12 | -6.82%
18 | CCC(C)Sc1nc2c(c(=O)[nH]c(=O)n2C)n1C (centres unmarked) | 9.64%
19 | Cc1scc(C(=O)N/N=C/c2ccc(OC(C)C)cc2)c1C | 6.61%
20 | CC(=O)Nc1cccc(/C(C)=N/NS(=O)(=O)c2ccccc2)c1 | 11.5%
21 | CC(C)(C)CN1CCNC(=O)C1CC(=O)NCc1cccc(-n2cccn2)c1 (centres unmarked) | 12.2%
22 | COc1ccc(C(=O)Sc2ccc(C)cc2)cc1OC | 15.4%
23 | CCOc1ccc(NC(=O)CN(C)C(=O)c2ccc(N3CCCCCC3)c([N+](=O)[O-])c2)cc1OCC | 17.6%

Row | SMILES | hERG current change (%, negative = inhibition) at 1uM
24 | COc1cccc(C(=O)Oc2ccc(/C=N/NC(=O)c3ccncc3)cc2OC)c1 | 6.21%
25 | COc1ccc(OCC(O)CN2CCN(CC(O)COc3ccc(OC)cc3)CC2)cc1 (centres unmarked) | 3.29%
26 | Cc1cc(C)n(C(=O)CNC(=O)C2COc3ccccc3O2)n1 (centres unmarked) | 15.9%
27 | Cc1ccc(C(=O)NC(=S)Nc2cccc(NC(=O)c3ccccc3)c2)cc1[N+](=O)[O-] | 1.28%
28 | Cc1ccc(S(=O)(=O)N2CCC(C(=O)NCC(C)(C)N3CCOCC3)CC2)c(C)c1 | -9.3%
29 | Cc1ccc(N2C(=O)NC(=O)/C(=C\c3ccsc3)C2=O)cc1C | 12.8%
30 | CCOC(=O)c1cccc([P+](=O)O)c1 | 4.29%
31 | COc1ccc(-c2csc3ncnc(Oc4cccc5ccc(C)nc45)c23)cc1 | 8.28%
32 | CN1C(=O)C(c2ccc([N+](=O)[O-])cc2[N+](=O)[O-])C(=O)N(C)C1=O | 15.2%
33 | CCc1cc(=O)oc2cc(C)cc(OC(C)C(=O)NCc3ccncc3)c12 (centres unmarked) | -14%
34 | COc1cc(NS(=O)(=O)c2ccc(NC(=O)CSC3=NCCS3)cc2)nc(OC)n1 | 14.3%
35 | Oc1cccc(/C=N/Nc2ccc(Cl)nn2)c1 | 9.59%
36 | COc1ccc(-n2c(-c3ccc(Cl)cc3Cl)n[nH]c2=S)c(OC)c1 | 11.7%
37 | CC(=O)NC1CC2CCCC(C1)N2CC(=O)NCc1ccc(F)cc1 (centres unmarked) | 7.83%
38 | COc1ccc(NS(=O)(=O)c2cc3c4c(c2)C(C)C(=O)N4CCC3)cc1 (centres unmarked) | 13.5%
39 | Cc1ccc(NC(=O)Cn2ncn3c(cc4ccccc43)c2=O)c(C)c1 | 8.22%
40 | CN(C)c1ccc(C(=O)N/N=C/c2ccccn2)cc1 | 6.32%
41 | Cc1n[nH]c(=O)nc1NCCN(C)C | 17.4%
42 | Cc1ccc(C)c(NC(=O)CCC(=O)N/N=C/c2cccnc2)c1 | 13.7%
43 | CC(=O)C1=NOC(CNC(=O)c2c(-c3ccccc3Cl)noc2C)C1 (centres unmarked) | 12.8%
44 | C[C@H](NC(=O)c1[nH]cnc1C(=O)Nc1ccc(CNC(=O)OC(C)(C)C)cc1)C(=O)OC(C)(C)C | 12.8%
45 | CCS(=O)(=O)c1ccc(-c2cccc(NC(=O)COc3ccc(Cl)cc3)c2)nn1 | 7.79%
46 | COC(=O)c1cccc(CSc2nnc(C)s2)c1 | 8.74%

Row | SMILES | hERG current change (%, negative = inhibition) at 1uM
47 | CCCC(=O)Nc1nnc(-c2cccc(OCC)c2)s1 | 7.97%
48 | CCn1c(C)cc(/C=C2/SC(=S)N(CC(=O)O)C2=O)c1C | 10.8%
49 | CCCn1c(N)c(C(=O)CSc2ncn[nH]2)c(=O)n(C)c1=O | 17.2%
50 | NS(=O)(=O)c1ccc(NC(=O)COC(=O)CCc2ccc(S(=O)(=O)N3CCOCC3)cc2)cc1 | 7.23%
51 | CS(=O)(=O)c1cnc2c(-c3ccsc3)cnn2c1N | 13.3%
52 | COCCn1c(SCC(=O)NNC(=O)Cc2ccccc2)nc2ccccc2c1=O | 11%
53 | C#CCN1CCN(c2ccc(F)cc2)CC1 | 3.75%
54 | CCN(Cc1ccccc1)C(c1ccncc1)c1nnnn1C(C)(C)C (centres unmarked) | 6.1%
55 | O=C(c1sc2ccccc2c1Cl)N(Cc1ccco1)C1CCS(=O)(=O)C1 (centres unmarked) | 7.91%
56 | CCOC(=O)C1CN(C)CCC1=O.Cl (centres unmarked) | 3.37%
57 | O=C(c1cccs1)N1CCCC1 | 10.5%
58 | Cc1ccc(-c2csc(NC(=O)CCNC(=O)c3ccco3)n2)cc1 | 9.23%
59 | CCOC(=O)c1[nH]ncc1CN1CCC(Cc2ccccc2)(C(=O)OCC)CC1 | 8.85%
60 | COc1ccc(S(=O)(=O)N(C(=O)C(C)C)c2ccc3oc(=O)sc3c2)cc1 | 6.07%
61 | Brc1cccc(OCCCN2CCCCCC2)c1.O=C(O)C(=O)O | -40.9%
62 | CC(=O)c1cccc(NC(=O)CSc2nc(=O)n(CCCN3CCOCC3)c3c2CCC3)c1 | 1.6%
63 | Cc1c(NC(=O)c2ccc(S(=O)(=O)N3CCOCC3)cc2)c(=O)n(-c2ccccc2)n1C | 8.06%
64 | O=C(OCCCN1CCCCC1)c1ccc(O)cc1 | -17.7%
65 | CSCCC(NC(=O)c1ccccc1)C(=O)NC1CC1 (centres unmarked) | 17.4%
66 | O=C(CSc1nc2c(cnn2-c2ccccc2)c(=O)[nH]1)N1CCCCC1 | 1.88%
67 | Cc1cccc(N2CC(C(=O)Nc3nc4ccc(S(C)(=O)=O)cc4s3)CC2=O)c1C (centres unmarked) | 12.3%
68 | CCNC(=O)NCCNC(=O)c1cc(OCC(F)(F)F)ccc1OCC(F)(F)F | 9.06%
69 | CCCCCc1c(O)nc(SCCN(CC)CC)[nH]c1=O.Cl | 6.75%

Row | SMILES | hERG current change (%, negative = inhibition) at 1uM
70 | CCOCCCNc1nc2c(c(=O)[nH]c(=O)n2C)n1CCCc1ccccc1 | -1.39%
71 | O=C(Cc1ccccc1)NN1C(=O)c2ccccc2C1=O | -2.73%
72 | O=C(C1CCN(S(=O)(=O)c2ccccc2)CC1)N1CCCCCC1 | -0.696%
73 | COc1ccc2c(c1)c1c3n2CCN(C)C3=NCC1.Cl | -54.9%
74 | Cc1cccc(NC(=O)C2C3C=CC(C4CC34)C2C(=O)O)c1 (centres unmarked) | 3.09%
75 | CC1(C)COC2(OC1)C(=O)N(CN1CCOCC1)c1ccccc12 | 6.19%
76 | CCCn1c2c(c(O)c(C(=O)NCc3ccccc3)c1=O)CCCC2 | 16.1%
77 | Cc1ccc(-c2nnc(SCC(=O)Nc3nccs3)n2N)cc1 | -11.9%
78 | COc1cc(C)ccc1Oc1ncnc(N)c1[N+](=O)[O-] | 10.5%
79 | Cc1ccc(Cl)cc1N1CCN(C(c2cccnc2)c2nnnn2C2CCCCC2)CC1 (centres unmarked) | 6.68%
80 | Cc1ccc(CNc2ccc(N3CCOCC3)c(Cl)c2)cc1 | 9.05%
81 | Cc1ccc2nc(N3C(=O)C(O)=C(C(=O)c4ccco4)C3c3ccc(C)o3)sc2c1.O=C(O)C(=O)O (centres unmarked) | 7.32%
82 | CCCCNC(=O)CN(Cc1ccco1)S(=O)(=O)c1ccc(C(C)=O)cc1 | -6.69%
83 | Cc1cccc(NS(=O)(=O)c2ccc3c(c2)NC(=O)CC(=O)N3)c1 | 18.4%
84 | Oc1cccc2ccc[n+](CC(O)Cn3c4ccccc4c4ccccc43)c12.[Cl-] (centres unmarked) | 6.01%
85 | Cc1ccc(O)c(C(=O)c2cc(C#N)c(=O)n(Cc3ccccc3)c2)c1 | 12.2%
86 | COc1cccc(CCNC(=O)CCCC(=O)c2ccccc2)c1 | 9.09%
87 | O=C(N[C@H](Cc1cc(=O)[nH]c2ccccc12)C(=O)O)c1ccc(Cl)cc1 | 10.3%
88 | CN(Cc1ccccc1O)CC1CCCN(CCc2ccc(Cl)cc2)C1 (centres unmarked) | -40.3%
89 | CCCc1cc(=O)oc2cc(C)cc(OCC(=O)NC3CCN(Cc4ccccc4)CC3)c12 | -0.282%
